Data taken from the supplement of paper PMC11417369.
± gives the standard deviation of the averaged measurements. Some of the results follow.

These sequences were tested on PfAP2-LT AP2 domain (GST-tagged) (assay: gcPBM binding intensity (ln(normalized median fluorescence intensity)); higher = stronger DNA binding).
Method in brief: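 Probes on an Agilent 4 × 180k array were primer-extended, double-stranded and 36 bp long, taken from intergenic genomic regions, with negative controls added. GST-tagged P. falciparum DNA-binding domains from E. coli, about 25 μg on average, were applied to the array for 1 h in 1× PBS containing 1% milk, 0.2 mg/ml BSA, 0.5% salmon testes DNA and 0.03% Triton X-100. Binding intensity, obtained after Alexa488 anti-GST antibody detection and a 488 nm scan, is the highest Masliner-normalised natural-log median intensity across replicate spots of either probe orientation.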

Sequence	gcPBM binding intensity (ln)
AAGGACAACAAACAAACACACACAAAAAAAAAATAA [CACACA_site9263]	9.6 ± 0.62
AAGAATATAATCTTCACACATATATATATATATATA [CACACA_site5927]	9.835 ± 0.035
TACACCTGCACGATTGCACACAAATATGTTTTGAAG [CACACA_site8656]	9.27 ± 0.32
AAAAAAAAAAAAAAAACACACATGTATAATATAATA [CACACA_site2209]	8.88 ± 0.53
TTATTATTAAAACACACACACAAAAAAAAAAAAAAA [CACACA_site1480]	9.19 ± 0.4
TTATATATATATATATAATATATATATATTTAAATA [XGTACX_negctrl_site453]	8.49 ± 0.26
TATAGATGTGGTTTATGTACATACTATAAAAAATCA [XGTACX_site1400]	8.7 ± 0.49
GCAGCAGCATTTTCAGTGCATTATTATATTGTTCAT [GTGCAC_site9926]	8.89 ± 0.38
TATTATAATACTTATTGTACTTTTAGGTTAATTTAT [XGTACX_site995]	8.71 ± 0.48
GTAATAAAATGACATACATGCATTACAATTATGTAA [TGCATGCA_site220]	8.91 ± 0.33
GTTGCACAATGTTACACACACAATATATATCGTTAA [CACACA_site1275]	9.2 ± 0.33
GTGTACTTTTAAATAGTGCATTTTACAATAATAAAA [GTGCAC_site9653]	8.4 ± 0.4
TAGTATTAAATATATACACACATATATACATATAGA [CACACA_site2154]	8.95 ± 0.45
TTAATTTTTTTTTCTTGTACACACTATTTTATAATT [XGTACX_site8783]	8.97 ± 0.59
AATTGTACGTAGGGGTATAAAAGCTTAAAAATGGGG [CACACA_negctrl_site1392]	9.43 ± 0.042
AAAGCAAAAGGAAAATAACCAACCCTAATTAACACA [CACACA_negctrl_site530]	8.96 ± 0.46
CCCTTTTTTTTTTAATGTACATATAATTATATATTT [XGTACX_site8568]	8.78 ± 0.42
GGAAACCTTTTTTTTACACACAATATATTAAGACTT [CACACA_site4899]	8.89 ± 0.33
AGATATCTTGTGAAATAAAAAAAATAATTGCTTATA [CACACA_negctrl_site798]	8.38 ± 0.5
AAATTAGACTATAATACACACATAAAAAAAAAAAAA [CACACA_site6155]	8.93 ± 0.51
AAAGAAAAAAAAATTACACACATATATTATAGATAT [CACACA_site7495]	8.93 ± 0.43
TCCTTCGAAACTAAAATTCATTTAAAATATTGATAT [CACACA_negctrl_site369]	8.21 ± 0.42

Sequence	gcPBM binding intensity (ln)
TAGGTCCTCATTTTATGTACATAAAGAAATATGATT [XGTACX_site4138]	8.59 ± 0.34
TACATACATACATACACACACACATATATATATATA [CACACA_site42]	10 ± 0.27
AAAAAAAATATATAAACACACATATTTATATACGCA [CACACA_site1631]	8.88 ± 0.38
ATATAAACATTTAGTAATCCATATAGGTACTACTGA [CACACA_negctrl_site1249]	8.61 ± 0.35
TATTTATAGATATATACACACATATACATATTGTTT [CACACA_site7611]	9.12 ± 0.44
ATATATGCTAATATATGTACTGATTATATCTCTTCA [XGTACX_site7156]	8.79 ± 0.49
ATATTATATTATTAATGTACATATATATAATTTTAA [XGTACX_site4974]	8.46 ± 0.4
AAGGCAAACAAACACACACACATATATACCTATATA [CACACA_site5203]	9.84 ± 0.32
TCTTATCCATATATTACACACTATATATAGAAATTA [CACACA_site291]	8.66 ± 0.39
AGAAATGAAATCCAAAAACGAGGAACCAATAACGCA [CACACA_negctrl_site1758]	9.14 ± 0.46
TATACACGCGGACACACACACACACGCAAAAAAAAA [CACACA_site6377]	10 ± 0.23
TAAAAACCAAAGAAAAGTACAAATTTAAATGAGAAA [XGTACX_site7450]	8.84 ± 0.61
ATAAGCCATTTTTGTGGTACATAAAATAGATATATA [XGTACX_site5175]	8.61 ± 0.52
TTTACACCGTAATATGCATGTGTGTATATATTTTTG [TGCATGCA_site186]	9.05 ± 0.32
ATATATATTTAAAGATGTACATAATGAAATGGTTAT [XGTACX_site4706]	9.01 ± 0.47
ATATATATATATGTATGTACATATTTTTTTTAACAC [XGTACX_site8475]	9.39 ± 0.042
GCAGTATTTCGGAACACACAAACATAAATATGTATT [CACACA_site2316]	9.01 ± 0.38
GCACAATTTACACTTAAACACACAAAAAAAAATTAT [CACACA_site8642]	9.01 ± 0.41
AAATTTATTTATTATAGTACACTTAATACTACCCAA [XGTACX_site41]	8.49 ± 0.48
AGCACAGACGGACACACACACACACCCACAGACACA [CACACA_site4358]	10.1 ± 0.23
CATCTTAGTTTGAGTTGTACAATATTTATAAAAATA [XGTACX_site693]	8.44 ± 0.48
ACAAGTTTAACATTTCGTACTTATTGTGTTTTTTTT [XGTACX_site5487]	8.97 ± 0.54

Sequence	gcPBM binding intensity (ln)
CTTTTAATATTAAGATGTACTTAGAATTTTTTTTTT [XGTACX_site8338]	8.18 ± 0.53
TTTTTTGTTATTGGCGTGCACATATCCATTTATAGT	8.99 ± 0.42
CATATATATTTATGTACACACATTAATAAAAAAAAA [CACACA_site5741]	8.84 ± 0.52
ATATATATAAATAATTGTACTTAAAAAAAAAAAAGG [XGTACX_site6847]	8.48 ± 0.55
TGTAGAGCGCAAAGTAGTACTACAAATTATGGAGGG [XGTACX_site3022]	9.28 ± 0.31
AACAGCATATCACATTTCTTCAAAAAAAAATAAAAT [CACACA_negctrl_site733]	8.69 ± 0.45
TTAAAACATAAAAAAAGTACATACAAATATATATAA [XGTACX_site789]	8.78 ± 0.54
TTCAAAACTTAAAATCGTACAAGACAATTATTATAT [XGTACX_site6626]	8.63 ± 0.42
AATTATATTACGAAATGTACATATAATAATGTATAT [XGTACX_site4410]	8.75 ± 0.34
TACAAAATAACTAGCACACATATGTATAAACATATA [CACACA_site5948]	9.03 ± 0.5
TATGTCAATCAAGCAAGTACATATATATATAAATAT [XGTACX_site7554]	8.9 ± 0.44
TTAAATGGAAAAATATGTACATATATATATATATTT [XGTACX_site2286]	8.84 ± 0.35
ATATTAAATTCAATTTAATGTTTTGTGAATTTTAGA [CACACA_negctrl_site1421]	8.29 ± 0.4
TGAACTCATAGATTTAGTACATATATAAAAAAATTC [XGTACX_site1692]	8.52 ± 0.44
GATTAATTTAAAAAATGTACATTTTATTGTATAACC [XGTACX_site5539]	8.62 ± 0.45
TAAACACCCATATAAACACACATACATACATACATA [CACACA_site5383]	9.53 ± 0.4
CCAAGAAACCAAAAAAGTACATACATGGTTATAATT [XGTACX_site4249]	8.96 ± 0.55
ACAATATGTATATATATATATATGCAAATGTATAAA [CACACA_negctrl_site53]	9.03 ± 0.38
CCATATATAATGACATGTACTCAAAAAAAAAAAAAA [XGTACX_site685]	8.61 ± 0.47
TTTCTCTTTTTTTGGGGTACAACCAATCCTATAATA [XGTACX_site297]	8.5 ± 0.49
ATACATATATATATATGTACATATATTTATATTTAT [XGTACX_site3155]	8.83 ± 0.41
TTTTTAAAAAAAAATAGAGAGTCAAAGTATGTGGCG [CACACA_negctrl_site194]	8.46 ± 0.58

Sequence	gcPBM binding intensity (ln)
TTTCAAGGATTTAATTTATGGAAACCTTCTTCATTT [GTGCAC_negctrl_site504]	8.34 ± 0.59
TAATTCAAACGTGTATGTATATTACTCGAAGAAATA [CACACA_negctrl_site1779]	8.46 ± 0.36
CATATAAGACAAAAGGTGCAATTTTAATGCTTTTAT [GTGCAC_site9432]	8.82 ± 0.44
AACCCTTTTGATTTTTCTTTTTTTTTTTTTTTAAAT [CACACA_negctrl_site1667]	8.47 ± 0.6
AGAAGGATATTATGAAGTACACATATTGTATATGGT [XGTACX_site7503]	8.9 ± 0.38
ACAGTTTGTCTGAGTAGTACATAAATACTTGAAAGG [XGTACX_site7792]	8.79 ± 0.45
TAGTAAAATGGAACACGTACATATATCTATGTATAA [XGTACX_site6103]	9 ± 0.37
AAAATCTAGGTATTTATACACACTAATATAATATAC [CACACA_site8108]	8.78 ± 0.43
TATATATTTGTGAAAATATTAAAATAAATAAATAAA [CACACA_negctrl_site295]	8.39 ± 0.44
AAGTTCAAAATAAATGGTACAGAAGTATATATATCA [XGTACX_site174]	8.83 ± 0.51
TAAAAAAAGAGATATTGTACACAAAAAAATTTTACT [XGTACX_site1342]	8.64 ± 0.44
TAGAAAAAAAAATACATACACACAATATATTTATTT [CACACA_site3123]	8.82 ± 0.48
CTCAAATAACTTTTTACACACATTATTTGAAATAAG [CACACA_site6722]	8.79 ± 0.38
ATATGAATGATCGTACGTACTTACATATTTATAAAG [XGTACX_site8041]	8.78 ± 0.4
CAGAATACATACATTACACACAAATTTAAGTATATA [CACACA_site1781]	9.08 ± 0.47
TCTTACACTAATAAATGTACATACAAAAAATCTATT [XGTACX_site1379]	8.56 ± 0.38
AATTTGAATATTTGATGTACAAAGTTTTTTAATGTT [XGTACX_site3249]	8.57 ± 0.52
TACCCACTAAAATACACACACACACCCACATATATA [CACACA_site6141]	10 ± 0.42
GTACCAACAGCACTACTTCTCGCCATTTTCTTGTAG [XGTACX_negctrl_site97]	8.97 ± 0.44
GAGAGGATAGTTCACAGTACCCAGTAACTCTACGGA [XGTACX_site4876]	8.81 ± 0.54
ATAAATATAACATATTGTACCCTTAAAAAGGAACAA [XGTACX_site352]	8.6 ± 0.4
AATACATGAACTTAAAGTACTAAAAAAAAAATAATA [XGTACX_site1956]	8.76 ± 0.57
